# According to paper PMC9783754 (International Journal of Molecular Sciences, 2022):
# B1: Recombinant human sTNF (soluble form of tumor necrosis factor) (ligand)
# chain: not shown
# notes: additional N-terminal methionine, stated in words; tumor necrosis factor, human, soluble form (157 residues), […] of UniProt entry […]; Monomeric on the SPR chip after long flushing and glycine pH 3.3 washes; multimeric in solution in the fluorimetric titrations and cross-linking; also called TNF-α; TNF ligand superfamily member 2; source: bought: Prospec-Tany Technogene (catalog # CYT-223), …
# Columns and labels:
# [1] = target: the molecule itself; test: cross-linking; 4 µM sTNF and/or S100 protein (sTNF to S100 1:0, 0:1, 1:0.5, 1:1, 1:2), 20 mM EDAC and 5 mM sulfo-NHS, 25 °C, 1.5 h; 10 mM HEPES, 150 mM NaCl, pH 7.4 with 1 mM CaCl2; SDS-PAGE with silver staining
# Recombinant human S100A6 = Recombinant human S100A6 (human, UniProt P06703); test: SPR; ligand (50 μg/mL sTNF or TNF-β) immobilised on a ProteOn GLH chip by amine coupling; chip flushed with running buffer for two days and several times with 10 mM glycine pH 3.3 to dissociate sTNF multimers (monomeric sTNF); Ca2+-loaded S100 protein as analyte, 10 nM–2 µM; 25 °C; 10 mM HEPES, 150 mM NaCl, 1 mM CaCl2, 0.05% TWEEN 20, pH 7.4; heterogeneous ligand model; conditions: both partners purified
binder,measurement,setting,value
B1,binding result,[1],binds
same,Kd,Recombinant human S100A6,> 100 µM
